According to PubChem BioAssay AID995 (National Center for Advancing Translational Sciences (NCATS), 2007):
Out of some 72,000 compounds screened, about 710 (0.99%) were called active. This list was built around the results that the source calls inconclusive (neither active nor inactive); the mix of calls is not that of the screen. Calls come from the whole dose curve; as a rule, active = well fitted inhibition curve with a large enough effect; inconclusive = small, poorly fitted or top-dose-only effect; inactive = no such curve, though single readings can be large or run the other way. Potencies beside an inconclusive call are fits to weak or partial responses and may not hold up.

Test: qHTS Assay for Inhibitors of the ERK Signaling Pathway using a Homogeneous Screening Assay; note: nearly all actives have a fitted effect of over 55% in size
Settings: HEK293-V1b, vasopressin-stimulated pERK AlphaScreen; series mostly up to 57.5 µM
Outline: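 HEK293 cells stably expressing V1b receptor, seeded overnight in 1% FBS, were treated with compounds for 30 min at 37C, then stimulated 5 min with 25 nM vasopressin; phospho-ERK read by AlphaScreen SureFire after lysis.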
Potency is the fitted concentration of half-maximal effect; tags give direction and shape of the fitted curve.

Potency, active:
COc1ccc(CNc2oc(-c3ccccc3)nc2C#N)cc1 31.6 µM
Cc1cc(-n2c(C)cc(C(=O)CSc3ncnc4ccccc34)c2C)no1 20 µM

Potency, inactive:
COc1cccc(NC(=O)c2cccc(OC)c2OC)c1
Cn1c(C(=O)NCc2ccccn2)cc2c(=O)n(C)c3ccccc3c21
c1cncc(-c2nnc(-c3cccs3)o2)c1
c1ccc(-n2cnc3cc(NCc4ccccn4)ccc32)cc1
CCSc1nnc(-c2ccccc2N)c(=O)[nH]1

Potency, inconclusive:
Nc1nnc(SCCOc2ccc(Br)cc2)s1 15.8 µM [inhibitor, partial curve]
COc1ccc(OC)c(NC(=O)CSc2nnc(Cc3cccn3C)n2-c2ccc(F)cc2)c1 31.6 µM [inhibitor, single point]
O=C(NCc1cccnc1)c1cc(S(=O)(=O)N2CCCCC2)ccc1Cl 39.8 µM [inhibitor, single point]
CCNc1ncc2nc(-c3ccccc3)c(=O)n(CCC#N)c2n1 15.8 µM [inhibitor, partial curve]
CCN(CCNC(=O)C1CCN(Cc2nc(-c3cccc(Cl)c3)oc2C)CC1)c1ccccc1 20 µM [inhibitor, single point]
COc1ccc2occ(C(=O)c3ccc(N=C(C)N(C)C)cc3)c2c1 39.8 µM [inhibitor, single point]
Cc1ccc2c3c1C1(C(=O)N3C(C)(C)CC2C)C(C#N)=C(N)Oc2cc(O)ccc21 (stereo not given) 39.8 µM [inhibitor, single point]
Cc1oc(/N=C/c2cccc3ccccc23)c(C#N)c1C 12.6 µM [inhibitor, partial curve]
CCOc1ccc(C2CC(=O)NC3=C2C(=O)CCC3)cc1 (stereo not given) 3.16 µM [inhibitor, partial curve]
COc1cc(SC)ccc1C(=O)Nc1ccccc1C#N 7.94 µM [inhibitor, partial curve, poor fit]
Cc1n[nH]c(C)c1N1C(=O)c2cccc3cc(Br)cc(c23)C1=O 7.94 µM [inhibitor, full curve]
CCOC(=O)C1CCCN(S(=O)(=O)c2ccc(OC)c3ccccc23)C1 (stereo not given) 10 µM [inhibitor, full curve, poor fit]
COCC(=O)Nc1sc2c(c1C(=O)OC)CCC(C)C2 (stereo not given) 39.8 µM [inhibitor, single point]
